The record followed here is PubChem BioAssay AID2060626 (Molecular Pharmacology Branch, DTP, NCI, 2025).

Each structure is given as a SMILES string. Not every entry of the source has a single result; some have several. Only these are listed. The source may hold further records. Values given together repeat one measurement in other runs, samples, wells, individuals or studies. Marks such as (2×) count equal records among those shown. Dates in brackets are months of testing.

This test has as its system 168753-222-R-J1-PDC complex spheroid viability. As to the kind of experiment: Anticancer human tumor 168753-222-R-J1-PDC patient-derived bladder carcinoma cell line growth inhibition [CLK]. To be noted: for IC50: compound alone; for viability, T/C: stronger effect = lower value. From the text: A high-throughput screen of multi-cell type tumor spheroids was designed to identify active combinations of […] and targeted small molecules. Complex spheroids include a stromal component modeled by human endothelial cells (HUVEC) and fibroblasts modeled by human mesenchymal stem cells (MSCs). The concentration ranges selected for each drug and investigational agent were based upon clinically achievable concentrations if the clinical Cmax of the agent was known.
Compounds. The drugs and investigational agents: cirtuvivint (SM08502; NSC835563), CC-671 (NSC850746), vemurafenib (NSC761431), tapotoclax (NSC804041), sotorasib (NSC818433), adagrasib (NSC831453), MRTX-1133 (NSC836407), BAY2416964 (NSC825713), copanlisib (NSC816437), inavolisib (NSC800729), abemaciclib (NSC768073), osimertinib (NSC779217), entinostat (NSC756642), eltanexor (KPT-8602, NSC794443), venetoclax (NSC766270), ceralasertib (NSC777638), bortezomib (NSC756655), olaparib (NSC753686), talazoparib (NSC767125), alisertib (NSC759677), peposertib (NSC802822), gemcitabine (NSC613327), 5-fluorouracil (NSC19893), SN-38 (NSC673596), oxaliplatin (NSC266046), paclitaxel (NSC125973), and doxorubicin (NSC123127), were obtained from the National Cancer Institute (NCI) Developmental Therapeutics Program Chemical Repository. The FDA-approved anticancer drug set is available from the Developmental Therapeutics Program at https://dtp.cancer.gov/organization/dscb/obtaining/available plates.htm. […] The stock solutions were prepared in dimethyl sulfoxide (DMSO, Sigma-Aldrich, St. Louis, MO, cat. D2650), except for the platinum complexes which were prepared in saline (Quality Biological, Gaithersburg, MD, cat. 114-055-101), at 800-fold the tested concentration and stored at -70 degrees C prior to their use. All drugs and investigational agents were tested over a range starting from a high concentration at or near the clinical Cmax and decreasing in half-log increments. If the clinical Cmax for an agent had not been determined, the highest concentration tested was 10 microM.
Cell Culture. All cells were maintained in an incubator at 37 degrees C and 5% CO2 with 95% humidity. The PDC lines were cultured according to standard operating procedures established by the NCI PDMR. Briefly, all PDCs were thawed and cultured in Matrigel-coated flasks prepared with a working solution of 1X Ham's F-12 nutrient mix, without supplementation (Invitrogen, Waltham, MA, cat. 11765054), 100 U/mL penicillin-streptomycin (Invitrogen, cat. 15140122), and 2.5% Matrigel (Corning Inc., Corning, NY, cat. 354248) for the first three passages. The 947758-054-R-J2-PDC line was cultured in 6B/Colon 1A media, which includes advanced DMEM/F-12 (Thermo Fisher Scientific, cat. 12634028), 10 mM HEPES (Thermo Fisher Scientific, cat. 15630080), 1X GlutaMAX supplement (Thermo Fisher Scientific, cat. 35050061), 0.1 mg/mL primocin (InvivoGen, cat. ant-pm-2), 10% defined fetal bovine serum, heat inactivated (HyClone Laboratories Inc., cat. SH30070.03HI), 1.25 mM N-Acetyl-L-cysteine (Sigma-Aldrich, cat. A9165), 10 mM nicotinamide (Sigma-Aldrich, cat. N0636), 1X B-27 supplement (Thermo Fisher Scientific, cat. 17504044), 1X N-2 supplement (Thermo Fisher Scientific, cat. 17502048), and 10 microM Y-27632 dihydrochloride (Tocris Bioscience, cat. 1254). The 876862-298-R-J1-PDC was cultured in 6E media, which includes all 6B/Colon 1A media components plus 50% L-WRN conditioned media (ATCC, cat. CRL-3276), 50 ng/mL recombinant human EGF recombinant protein (hEGF; Thermo Fisher Scientific, cat. PHG0311), 10 ng/mL recombinant human fibroblast growth factor 10 (hGFG-10; PeproTech, cat. 100-26), 1 ng/mL recombinant human fibroblast growth factor 2 (hFGF-2; PeproTech, cat. 100-18B), and 1 µM prostaglandin E2 (PGE2; Tocris, cat. 2296). The 227483-062-R1-J1-PDC line was cultured in Panc media, containing all 6E components except hFGF-2, with the addition of 500 nM SB-431542 (Selleckchem, cat. S1067) and 10 nM gastrin (Tocris, cat. 3006). […]
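Further: viability measured after seven days of drug exposure.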
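Wherever viability, T/C is given: luminescence signal used as surrogate for viable cell amount; 100% = DMSO vehicle control wells.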

For `Nc1ccn(C2OC(CO)C(O)C2(F)F)c(=O)n1` (configuration not stated), the IC50 is 41.3 nM [2023-07] and 499 nM [2023-08]. For `CN1CCN(c2cc(C(=O)Nc3cc4cc(-c5cnn(C)c5)ccc4cn3)ccn2)CC1`, the viability, T/C reads like this: (compound alone 0.0316 µM) 65.6, 61.3, 84.4, 88.6, 77.5, 90.7, 90.6, 86.8, 97.2, 108, 84.8, 116%; (compound alone 0.1 µM) 29.4, 40.4 (2×), 58.2, 56.7, 50.5, 61, 42.3, 32.6, 58.7, 57.4, 47.5%. For the molecule `CCN1CCN(Cc2ccc(Nc3ncc(F)c(-c4cc(F)c5nc(C)n(C(C)C)c5c4)n3)nc2)CC1`, the IC50 is 22.8 nM [2023-07] and > 1 µM [2023-08]. Same read-out and setting: the same measure for `CCc1c2c(nc3ccc(O)cc13)-c1cc3c(c(=O)n1C2)COC(=O)[C@]3(O)CC`: 11.8 nM [2023-07] and 253 nM [2023-08]. As to `CNC(=O)c1ccc(Nc2nc(OC3CCCC3)c3c(-c4ccc5nc(C)oc5c4)c[nH]c3n2)c(OC)c1`, the viability, T/C (compound alone 0.316 µM) was 86.1, 69.6, 79, 69.5, 72.8, 72.3, 76.4, 73.7, 74.2, 79.1, 57, 78.9%. Regarding `NC(=O)C(=Cn1cnc(-c2cc(C(F)(F)F)cc(C(F)(F)F)c2)n1)c1cncnc1`, the IC50 is 187 nM [2023-07] and > 3 µM [2023-08].
